# Assay results from the RNAGym collection of RNA variant scans (doi:10.7554/elife.90254).
# The source gives no read counts; variants with many changes may rest on few reads.
# B1: LINE1-mini (parent)
# chain: GGCAGAGCUCAACACAGCGUGGCAAAGUGGCUGUGGCUAGACUGCC
# B2: LINE1-full (parent)
# chain: UACGUAGGUGGUUUUCCCCUGAUAGUGCUAAGGGGGCCUGGAAGUUUGGACUGGGCAGAGCUCAACACAGCGUGGCAAAGUGGCUGUGGCUAGACUGCCUCUCUGGAUUCCUCGUCACUCAGCAGGGCAUCUCUGAGAGAAAUGCC
# Variants of: B1
# Assay: self-cleavage, relative activity (ratio to wild type); higher = more cleavage; in vitro, sequencing; the parent is a self-cleaving ribozyme
row,Variant,self-cleavage
1,G1A A4U G44A,0.07
2,G1A A14U G21C G29C G36C,0.05
3,G1A A6C C8G U28C,0.04
4,G1A A6C C45A,0.3
5,G1A A4C C8A G40C,0.27
6,G1A A14U U20A C23A G36A,0.11
7,G1A A4U C37A,0.07
8,G1A A4C C23U,0.08
9,G1A A12U U34C G36A G44A,0.05
10,G1A A16G A25G G30C,0.02
11,G1A A16C G21A A41C,0.04
12,G1A A6U G19C,1.01
13,G1A A6C C46U,0.24
14,G1A A11G A24C U32G,0.03
15,G1A A12U G17A C23A C31U,0.16
16,G1A A12U A14C A16C U34A G35C U38G,0.01
17,G1A A12U A16G U20C G27U G35C C37G G40U,0.01
18,G1A A6C C10A G29A G35A,0.02
19,G1A A11U C13A G29U C31A A39U G44U,0.01
20,G1A A11G C37A,0.03
21,G1A A4C G17A G22C G30C,0.03
22,G1A A14G G29U C37G,0.11

row,Variant,self-cleavage
1,G1A A12U C13U G33U,0.09
2,G1A A4G A6U G21U,0.11
3,G1A A16C A26G,0.06
4,G1A A14G C18A A25U U38C U43G,0.02
5,G1A A11G A12U A14G G22A,0.04
6,G1A A6U C10U C15G C18G G44U,0.04
7,G1A A4U A6C G19A U20C,0.77
8,G1A A11U G22A,0.87
9,G1A A12U C15A G17A,0.03
10,G1A A6U C10A,0.06
11,G1A A6G G19A C23G A24U A25C A39G,0.03
12,G1A A11U G22A C46A,0.03
13,G1A A4C A6U A12C U34C C46A,0.03
14,G1A A14G A16U G21U C37G G40U C45U,0
15,G1A A4G G5C,0.16
16,G1A A16C A24G G36C,0.02
17,G1A A6U C15U C23U,0.02
18,G1A A4G C18U G22U U34C,0.08
19,G1A A14C A26C,0.68
20,G1A A4G A16U G21C,0.22
21,G1A A4U G22U,0.21
22,G1A A6G G27A C31U,0.1

row,Variant,self-cleavage
1,G1A A14G G33U,0.04
2,G1A A11G A12C A16G G35A,0
3,G1A A11U A16G G40A,0.04
4,G1A A4C C8U G36A C46U,0.37
5,G1A A4U A12C,0.13
6,G1A A4C G35A U38G G40C,0.03
7,G1A A4C C15A G27C U34C,0.05
8,G1A A4C A6C A25G,0.07
9,G1A A4U C8U A24G G27C G33U G35U A41C U43C,0.13
10,G1A A4C A6C A11C,0.03
11,G1A A14U C45A,0.18
12,G1A A4C C23U A39U C42A,0.02
13,G1A A6C C15A C23U,0.08
14,G1A A6G C13G U20G C31U A41C C42G G44C,0.02
15,G1A A4G A14U G21A,0.08
16,G1A A4G G22C G29U,0.1
17,G1A A12C U28C G35C,0.04
18,G1A A12U G19C G29A C31A,0.03
19,G1A A11U G17C C46U,0.31
20,G1A A14C C15A A25U,0.08
21,G1A A4C C10U C15U C37U,0.06
22,G1A A14G U28C C31A G36U C46G,0.25

row,Variant,self-cleavage
1,G1A A11G C15U,0.07
2,G1A A14C C15G U20G G22A,0.06
3,G1A A4G U9A G19U C23U A24G U43A,0.05
4,G1A A12G U20C A25C U28A A41G,0.01
5,G1A A12C G17A G35C,0.03
6,G1A A14G A26C U43G,0
7,G1A A4G A41C,0.07
8,G1A A11C C18U U28A,0.05
9,G1A A6C A11C G19A C45A,0.06
10,G1A A12G G33C C46A,0.06
11,G1A A11C C46U,0.35
12,G1A A4G A11U G21U C31A U34G,0
13,G1A A12G C15A,0.07
14,G1A A14C C23G,0.07
15,G1A A6U A12U G19A U32G,0.07
16,G1A A6U G21U G40U,0.38
17,G1A A14G C15U G21U G29C G30C C37G,0.02
18,G1A A11C G22C G33U G35A,0.02
19,G1A A6C U9A G17C G40C,0.25
20,G1A A6G A12U,0.03

# Variants of: B2
# Assay: as above
row,Variant,self-cleavage
1,G32A U62C U100C U109C,0.04
2,U20A U26A G36A A43G,0.47
3,G27A A94G G127A,0.15
4,U12A U15A U46C,0.95
5,U39A A77G A117G A141G,2.3
6,U1A A42G A64U A78G,0.53
7,U26G G54A U62C,0.15
8,U15A U87C G126C,0.3
9,U47C A50G U85C,0.8
10,U45C C113U A136G,1.32
11,U9A U12C G54A U73A U130C A142G,0.43
12,G35A C84G U102C A138U C145U,0.03
13,U52C C68U G127A A138G A142G,0.15
14,A31U A43U U45C,0.68
15,G25A A57U U62A A141C,0.02
16,U15A U81A U102A,1.46
17,U29A A64G G126C A138G,0.46
18,U14A U39A A43G U104C,1.35
19,U12C U14C A141G U143C,1.89
20,U26A A50G U108C,1.58
21,U15C A42G U115C,2

row,Variant,self-cleavage
1,G27A A129G A136G,2.32
2,U5A U115C A136U,0.77
3,U15C U62C C113U,0.01
4,G48A G93U A136G,0
5,G11U G32U U62C A141G,0.06
6,U1C U39C A50G,1.64
7,U87A A136G A138G,0.06
8,U23C G35U U62C A94G U100C,0
9,U5C A77G G82A,2.11
10,A64G U87A G125A,0.05
11,A50G U85A U96C U115A,0.09
12,A31G A79U A121U C146U,1.96
13,A77U U81A A129U,1.96
14,U13C A65C A69G C98A A136G,0.05
15,U52A A57G U134A,0.56
16,U29A A59G U134A A136U,0.12
17,U14C A78U U81C,1.79
18,U14C U100A A129U,1.1
19,U46A A79G U132A,1.25
20,A59U U109C U119C A121G,0.68
21,U12C U52A A77G C84A,0.49

row,Variant,self-cleavage
1,U45C U62C C84A U109C A142G,0.03
2,U29A A69G A94U,0.26
3,U14C G70A A124U,0.29
4,U29C G55A U62A,0.05
5,U87C A117G A140G,0.08
6,G93U U108C U132A A142G,0
7,C16U U39C C51U U130A,0.53
8,U14C A24U A129G U132C,1.15
9,A64G U73C A92U G122A A129G,0.31
10,G33C A57G A136G,0.31
11,A30U A64U U87A A92G,0.05
12,U85A U96C C128U U134C A142G,0.08
13,A6G U91A A138G A142G U143C,2.12
14,U52G A57U U119A,0.36
15,U14C A43G U108C,0.88
16,A22G A24G U112A,0.85
17,A2C A22G U39C A107G,0
18,G35A U81C A121U,1.12
19,A64G U91A A140G,0.12
20,G32U A64G U102C,0.07
21,A6U A78U U130C,1.51

row,Variant,self-cleavage
1,U5C A50G U102A G114A A117G C123U A136G A140G,0.32
2,A77U A140G U143C,0.65
3,A64G U91C A141G,0.39
4,U5A U15C G58A,0.21
5,U100C U119A A136G,1.89
6,G54A U62A A142G,0.05
7,A69G G135A U143A,0.34
8,A30G G60C U81C A121G A140U,0
9,U20A A65G A141G,0.02
10,U13C C68U U81A U134C A141G,0.18
11,U20A U26A A69U,0.02
12,U47A A77G U102C,1.45
13,U1C G44A G75A A121U,0.57
14,U26C U73A U108C,1.61
15,G54A U96A A129U,0.05
16,U15A A42G U81C,1.36
17,A2G U20A U45C,0.33
18,U9C U46C G125A,1.27
